{"source": "ChEMBL document CHEMBL1201862", "about": "“PubChem BioAssay data set” (2004)", "note": "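1) Cells in 96-well plates. 2) Compound, 48 h, 5 concentrations. 3) Linear interpolation between surrounding doses. 4) Unreached endpoint = highest concentration. The concentration for 50% growth inhibition is given as GI50.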 Calls of active or inactive are those of the source. Cut-off read from the data, not from the text of the source: active = GI50 up to about 1.1 µM and inactive = higher.", "data": [{"test_system": "NCI-H322M", "experiment": "NCI-60 cell line screen, 48 h", "values": [{"smiles": "CC1CCC2(O)C3(C)CC4(O)OC2(C1O)C1(O)C3(O)C(OC(=O)c2ccc[nH]2)C(O)(C(C)C)C41C", "note": "(stereo not given)", "GI50": "inactive: > 100 µM"}, {"smiles": "CCNc1ncnc2nn[nH]c12", "GI50": "inactive: > 100 µM"}, {"smiles": "C#C[C@@H](CCCC)OC(=O)N[C@H](C)c1ccccc1", "GI50": "inactive: > 100 µM"}, {"smiles": "N#Cc1c(N2CCOCC2)ncn(-c2ccc(Cl)cc2)c1=O", "GI50": "inactive: > 100 µM"}, {"smiles": "NNC(=O)c1cc([N+](=O)[O-])ccc1NC(=O)C12CC3CC(CC(C3)C1)C2", "GI50": "inactive: 3.69 µM"}, {"smiles": "NC(CCc1ccccc1)(C(=O)O)c1ccccc1", "note": "(stereo not given)", "GI50": "inactive: > 100 µM"}, {"smiles": "COC1CC(OC2CCC3(C)C(CCC45CCC(C6=CC(=O)OC6)C(C)(CCC43)C5=O)C2)OC(C)C1O", "note": "(stereo not given)", "GI50": "inactive: 44.5 µM"}, {"smiles": "N#Cc1c(NC(=S)Nc2ccccc2)sc2c1CCCC2", "GI50": "inactive: > 100 µM"}, {"smiles": "CCOC(=O)c1c(N)sc2c1CC(C)CC2", "note": "(stereo not given)", "GI50": "inactive: 37.5 µM"}, {"smiles": "CC(=O)Nc1nnc(S(C)(=O)=O)s1", "GI50": "inactive: > 100 µM"}, {"smiles": "Cc1ccc(N)c(S)c1", "GI50": "inactive: 23.8 µM"}, {"smiles": "COC(=O)C(C/C=C(\\C)c1ccccc1)C(C)=O", "note": "(stereo not given)", "GI50": "inactive: > 100 µM"}, {"smiles": "COc1ccc(-c2cc(C(O)C3CCCCN3)c3ccccc3n2)cc1", "note": "(stereo not given)", "GI50": "inactive: 8.22 µM"}, {"smiles": "CCCCC(N)CSSCC(N)CCCC", "note": "(stereo not given)", "GI50": "inactive: 71.1 µM"}, {"smiles": "C=C(C(=C)P(=S)(C(C)C)C(C)C)P(=S)(C(C)C)C(C)C", "GI50": "inactive: > 100 µM"}, {"smiles": "COC(=O)[C@H](Cc1ccccc1)NC(=O)NCCN(CCNC(=O)N[C@@H](Cc1ccccc1)C(=O)OC)C(=O)N[C@@H](Cc1ccccc1)C(=O)OC", "GI50": "inactive: 21.9 µM"}, {"smiles": "N=NCC(=O)OC(COCc1ccccc1)COCc1ccccc1", "GI50": "inactive: > 100 µM"}, {"smiles": "CC(=O)N1N=C(N)CC1=O", "GI50": "inactive: > 100 µM"}, {"smiles": "CCN(CC)c1c(C(=O)/C=C/c2ccc(OC)cc2)c(-c2ccccc2)nn(C)c1=O", "GI50": "inactive: 16.9 µM"}, {"smiles": "CCOC(=O)C1(C(=O)OCC)C[C@H](C)[C@](C)(O)C1", "GI50": "inactive: > 100 µM"}, {"smiles": "CC(=O)c1sc2c(c1OC(=O)c1ccccc1)c(=O)n(-c1ccccc1)c(=S)n2-c1ccccc1", "GI50": "inactive: 5.26 µM"}, {"smiles": "COc1cc(C2c3cc4c(cc3OC(N3CCOCC3)C2C)OCO4)cc(OC)c1OC", "note": "(stereo not given)", "GI50": "inactive: 2.37 µM"}, {"smiles": "NC(=O)CCC(NC(=O)Cc1ccccc1)C(=O)O", "note": "(stereo not given)", "GI50": "inactive: > 2470 µM"}, {"smiles": "NC(=O)C1N=NSC1NC(=O)c1ccc([N+](=O)[O-])cc1", "note": "(stereo not given)", "GI50": "inactive: 71 µM"}, {"smiles": "CCOC(=O)C1=C(C(=O)OCC)C2(c3ccccc3)N(O1)c1ccccc1C2(C)C", "note": "(stereo not given)", "GI50": "inactive: 53.3 µM"}, {"smiles": "CN(C)c1cccc(OC(=O)NCCCl)c1", "GI50": "inactive: > 100 µM"}, {"smiles": "Cc1ccc(/N=N/c2ccc(O)c(CN(C)C)c2)cc1C", "GI50": "inactive: 31.4 µM"}, {"smiles": "COc1cc(/C=C2\\S/C(=N/Nc3nc(-c4ccc(Br)cc4)cs3)NC2=O)cc(OC)c1OC", "GI50": "inactive: 21.9 µM"}, {"smiles": "O=C(CSCC(=O)N/N=C\\c1cccc([N+](=O)[O-])c1)N/N=C\\c1cccc([N+](=O)[O-])c1", "GI50": "inactive: 39.9 µM"}, {"smiles": "CCOC(=O)c1cn(-c2ccccc2)c(=S)n2c1nc1ccccc12", "GI50": "inactive: > 65.8 µM"}, {"smiles": "O=C1N=NC(=O)N1c1cc(C(F)(F)F)cc(C(F)(F)F)c1", "GI50": "inactive: 4.17 µM"}, {"smiles": "CN(C)S(=O)(=O)c1ccc2c(c1)/C(=C1/Nc3ccccc3C1=O)C(=O)N2", "GI50": "inactive: 40.8 µM"}, {"smiles": "CNc1cc([N+](=O)[O-])ccc1C(=O)N1CCC[C@H]1CO", "GI50": "inactive: > 100 µM"}, {"smiles": "Cc1ccc(N2C(=O)CC(=O)N(NC(=O)C(C)Oc3ccccc3C)C2=S)cc1", "note": "(stereo not given)", "GI50": "inactive: > 100 µM"}, {"smiles": "COc1cc2c(cc1OC)C1C(=O)c3c(O)cc4c(c3OC1CO2)C=CC(C)(C)O4", "note": "(stereo not given)", "GI50": "inactive: 80.4 µM"}, {"smiles": "NC(=S)N1N=C2c3ccccc3CC[C@@H]2[C@@H]1c1ccccc1", "GI50": "inactive: 22.4 µM"}, {"smiles": "CNc1nc(SC)nc2c1c(N)nn2C", "GI50": "inactive: > 100 µM"}, {"smiles": "Cc1nc2c(nc1C)-c1c(c3c(n1C)C(=O)CCC3)C(=O)C2=O", "GI50": "inactive: 1.93 µM"}, {"smiles": "CN(C)CCCNC(=O)N/N=C/c1ccc([N+](=O)[O-])cc1", "GI50": "inactive: 67.1 µM"}, {"smiles": "COc1ccc2c(c1)CC1C3(CCCCC23)CC[N+]1(C)C", "note": "(stereo not given)", "GI50": "inactive: > 100 µM"}, {"smiles": "Nc1ccc(C(=O)CC(N)C(=O)O)cc1O", "note": "(stereo not given)", "GI50": "inactive: > 100 µM"}, {"smiles": "CN(C)CCNC1=Nc2ccccc2C(=S)N2CSCC12", "note": "(stereo not given)", "GI50": "inactive: > 100 µM"}, {"smiles": "C#CCn1ncc2c(SCc3ccccc3)ncnc21", "GI50": "inactive: > 100 µM"}, {"smiles": "CC(=O)[C@H]1[C@@H](OCc2ccccc2)O[N+]([O-])=C(C)[C@@H]1c1ccccc1", "GI50": "inactive: > 100 µM"}, {"smiles": "O=C1CCC(=O)N1CNc1ccc2c(c1)Sc1ccccc1O2", "GI50": "inactive: 44 µM"}, {"smiles": "O=C1C(=O)N(C2C3CC4CC(C3)CC2C4)C(=O)C(=O)C1c1nc2ccccc2o1", "note": "(stereo not given)", "GI50": "inactive: > 100 µM"}, {"smiles": "COc1ccc(NCc2c(O)ccc3ccccc23)cc1", "GI50": "inactive: > 100 µM"}, {"smiles": "Nc1nc(=O)c(/N=N/c2ccccc2)c(C(=O)O)[nH]1", "GI50": "inactive: 45.2 µM"}, {"smiles": "CCCCCCCCCCCCCCCCCCNc1ccn(C2OC(COP(=O)(O)OC3CC(n4cc(F)c(=O)[nH]c4=O)OC3COP(=O)(O)OCC3OC(n4ccc(N)nc4=O)C(O)C3O)C(O)C2O)c(=O)n1", "note": "(stereo not given)", "GI50": "inactive: 37.2 µM"}, {"smiles": "O=c1[nH]nc(-c2ccc([N+](=O)[O-])cc2)n1/N=C/c1ccc([N+](=O)[O-])cc1", "GI50": "inactive: > 100 µM"}]}]}
